These results are taken from patent US10381110B2, “Molecules” (University of Dundee, priority 2010, dated 2019).

The structures appear in SMILES notation. pKi: −log10 of the molar value. Structures can show the parent of a compound that is named as a salt. Where two headings read alike, the source gives them in different places.

Assay in all cases: Secondary radioligand binding assay (Ki)
For one assay, the target named is T1, Alpha1D (Homo sapiens, UniProt P25100).
T1 sequence (P25100 1-572): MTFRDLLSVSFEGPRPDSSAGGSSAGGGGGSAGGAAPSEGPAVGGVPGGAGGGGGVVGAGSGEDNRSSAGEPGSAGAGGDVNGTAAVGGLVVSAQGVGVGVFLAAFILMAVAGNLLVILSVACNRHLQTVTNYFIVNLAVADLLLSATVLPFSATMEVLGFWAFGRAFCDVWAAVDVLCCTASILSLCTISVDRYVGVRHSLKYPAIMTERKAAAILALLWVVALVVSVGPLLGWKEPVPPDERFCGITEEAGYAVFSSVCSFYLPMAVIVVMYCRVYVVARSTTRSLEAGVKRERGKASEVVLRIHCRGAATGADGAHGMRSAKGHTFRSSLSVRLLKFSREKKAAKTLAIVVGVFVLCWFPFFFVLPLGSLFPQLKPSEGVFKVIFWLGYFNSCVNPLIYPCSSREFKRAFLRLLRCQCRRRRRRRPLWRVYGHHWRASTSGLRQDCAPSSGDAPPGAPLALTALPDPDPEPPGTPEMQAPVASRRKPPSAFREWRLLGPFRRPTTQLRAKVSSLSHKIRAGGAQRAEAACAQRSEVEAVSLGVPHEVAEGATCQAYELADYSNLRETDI
To be noted: read-out: Alpha1D KI, Cheng-Prusoff.

The target in a further assay is T2, α1A (Alpha1A) (Homo sapiens, UniProt P35348).
T2 sequence (P35348 1-466): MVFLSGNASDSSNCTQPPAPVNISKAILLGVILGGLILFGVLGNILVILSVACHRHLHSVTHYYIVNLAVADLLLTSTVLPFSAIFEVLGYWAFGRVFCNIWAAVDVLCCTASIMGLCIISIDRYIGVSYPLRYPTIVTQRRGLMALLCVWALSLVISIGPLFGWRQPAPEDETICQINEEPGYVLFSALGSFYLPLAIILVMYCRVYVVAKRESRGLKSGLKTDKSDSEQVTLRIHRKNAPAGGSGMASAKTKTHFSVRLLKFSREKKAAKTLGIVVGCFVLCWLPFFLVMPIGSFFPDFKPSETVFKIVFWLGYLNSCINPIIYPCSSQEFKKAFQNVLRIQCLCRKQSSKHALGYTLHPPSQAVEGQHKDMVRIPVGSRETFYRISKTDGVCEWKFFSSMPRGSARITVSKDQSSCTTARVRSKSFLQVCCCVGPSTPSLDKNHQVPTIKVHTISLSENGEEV
Particulars: read-out: Alpha1A KI, Cheng-Prusoff.

A further assay has as its target T3, dopamine D4 (Homo sapiens, UniProt P21917).
T3 sequence (P21917 1-419): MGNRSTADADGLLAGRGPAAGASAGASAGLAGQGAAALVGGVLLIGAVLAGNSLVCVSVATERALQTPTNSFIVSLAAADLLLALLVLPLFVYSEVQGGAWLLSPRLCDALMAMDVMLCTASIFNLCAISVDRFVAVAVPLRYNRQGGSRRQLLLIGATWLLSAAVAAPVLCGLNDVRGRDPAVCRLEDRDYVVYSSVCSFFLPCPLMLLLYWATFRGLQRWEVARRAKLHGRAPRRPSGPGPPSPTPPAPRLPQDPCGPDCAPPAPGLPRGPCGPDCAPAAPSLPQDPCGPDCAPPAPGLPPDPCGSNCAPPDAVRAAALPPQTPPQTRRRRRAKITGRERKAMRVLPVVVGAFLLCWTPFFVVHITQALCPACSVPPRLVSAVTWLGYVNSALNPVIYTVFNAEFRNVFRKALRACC

For another assay, the target named is dopamine D2 (Homo sapiens, UniProt P14416). To be noted: for pKi: read-out: D2 KI, Cheng-Prusoff.
A further assay deals with 5HT1a (Homo sapiens, UniProt P08908). Particulars: read-out: 5ht1a KI, Cheng-Prusoff.
The target of the next assay is T4, α1B (Alpha1B) (Homo sapiens, UniProt P35368).
T4 sequence (P35368 1-520): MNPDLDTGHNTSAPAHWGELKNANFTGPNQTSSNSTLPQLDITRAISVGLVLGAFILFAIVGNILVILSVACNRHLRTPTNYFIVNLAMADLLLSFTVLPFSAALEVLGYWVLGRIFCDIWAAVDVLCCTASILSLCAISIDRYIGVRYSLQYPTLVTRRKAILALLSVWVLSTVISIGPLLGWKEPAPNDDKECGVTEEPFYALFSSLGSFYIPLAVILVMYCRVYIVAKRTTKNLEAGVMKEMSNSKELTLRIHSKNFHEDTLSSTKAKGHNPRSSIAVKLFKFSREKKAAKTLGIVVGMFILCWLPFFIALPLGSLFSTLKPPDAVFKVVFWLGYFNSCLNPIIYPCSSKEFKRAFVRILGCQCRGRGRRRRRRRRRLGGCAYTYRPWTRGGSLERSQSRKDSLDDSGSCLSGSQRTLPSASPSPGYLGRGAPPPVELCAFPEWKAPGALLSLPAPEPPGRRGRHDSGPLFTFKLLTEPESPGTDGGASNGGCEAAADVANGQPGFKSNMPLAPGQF
To be noted: read-out: Alpha1B KI, Cheng-Prusoff.

A further assay deals with dopamine D1 (Homo sapiens, UniProt P21728). Particulars: read-out: D1 KI, Cheng-Prusoff.
[1] abbreviates: read-out: D4 KI, secondary binding assay, Cheng-Prusoff.
[2] abbreviates: read-out: Experimental Receptor Binding Data-Ki D4, Table 25, GPCR panel.

Sequence of UniProt P21728 (P21728 whole entry): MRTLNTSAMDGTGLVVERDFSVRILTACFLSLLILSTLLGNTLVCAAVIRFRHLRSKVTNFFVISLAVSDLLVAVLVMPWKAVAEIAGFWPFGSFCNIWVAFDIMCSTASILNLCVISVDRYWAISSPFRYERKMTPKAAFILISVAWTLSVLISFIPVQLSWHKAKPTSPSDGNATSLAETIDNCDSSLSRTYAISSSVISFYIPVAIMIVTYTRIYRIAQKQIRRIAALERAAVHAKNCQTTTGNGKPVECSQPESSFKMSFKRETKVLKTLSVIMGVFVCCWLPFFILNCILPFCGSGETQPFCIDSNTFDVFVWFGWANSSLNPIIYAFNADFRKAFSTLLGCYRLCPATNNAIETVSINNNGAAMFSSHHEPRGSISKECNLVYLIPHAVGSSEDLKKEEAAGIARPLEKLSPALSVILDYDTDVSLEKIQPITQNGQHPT

Turning to `COc1ccc2c(c1)C(=O)N(CCCN1CCN(c3ccccc3OC)CC1)C2` [GFR-VII-273], the figures for the pKi on Alpha1D, on α1A (Alpha1A) and at dopamine D4 were 7.09, 7.19 and 7.89, respectively.

As for `COc1ccc2c(c1)C(=O)N(CCN1CCN(c3ccccc3OC)CC1)C2` [GFR-VII-280-HCl], the pKi at dopamine D4 was 6.73.

For the compound `COc1ccc2c(c1)C(=O)N(CCN1CCN(c3ccccc3OC)CC1)C2` [GFR-VII-280], the pKi at Alpha1D was 7.91; on α1A (Alpha1A), 7.80; at dopamine D2, 5.78; on 5HT1a, 8.46; at α1B (Alpha1B), 7.41; on dopamine D4 (setting [1]), 6.72. Moreover, at dopamine D4 (setting [2]), the negative-log Ki (pKi) is 6.72.

Turning to `COc1cc2c(cc1OC)C(=O)N(CCCCN1CCN(c3ccccc3OC)CC1)C2` [GFR-VII-285], the pKi on Alpha1D was 8.36; on α1A (Alpha1A), 9.05; at dopamine D2, 6.81; at α1B (Alpha1B), 7.71; at dopamine D4 (setting [1]), 6.36; at dopamine D4 (setting [2]), 6.36. For the same compound, the negative-log Ki (pKi) at dopamine D1 was 6.27.

In the case of `COc1ccc2c(c1)CN(CCCN1CCN(c3ccccc3OC)CC1)C2=O` [GFR-VII-290], the pKi on Alpha1D is 7.25; at α1A (Alpha1A), 7.22; at dopamine D2 it was 5.86; on 5HT1a, 7.72; on α1B (Alpha1B), 6.22; at dopamine D4 (setting [1]) it was 6.94. Also, the pKi is 6.94 at dopamine D4 (setting [2]) and 5.56 at dopamine D1.

In turn, `CC1Cc2ccccc2N1C(=O)CN1CCN(Cc2ccccc2)CC1` (stereo not shown) [STT-00185638, 2-[-4-(benzyl)-piperazin-1-yl]-1-(2-methy-2,3-dihydro-indol-1-yl)-ethanone] had a pKi on dopamine D4 of 8.02. In addition, at dopamine D4 (ratio of Ki values), the “increase in affinity for dopamine D4 receptor over donepezil” value is given as 65 fold.

Consider `COc1cc2c(cc1OC)C(=O)C(CC1CCN(Cc3ccccc3)CC1)C2` (stereo not shown) [donepezil, reference compound], for which the “D2 KI” value at dopamine D2 (Cheng-Prusoff, listed as Donepezil) was “inactive”. The pKi on dopamine D4 (setting [1]) and at dopamine D4 (setting [2]) was 6.21 in each case.
